Measured values reported in the supplement of paper PMC4967469.
By IC50 is meant the dose at which the fit gives 50% viability; where the fit passes the top or lowest dose, that dose stands as a limit. For AUC the same curve is integrated over the 256-fold range of doses and scaled to a fraction; the more sensitive the line, the further below 1. Any top dose called inferred comes from the curve model; the source does not state it. For some of these results: Drugs with an entry number were screened twice under separate entries, and the two screens often disagree.

What follows are cell lines tested with CC(C)=CC[C@@H](O)C1=CC(=O)c2c(O)ccc(O)c2C1=O [Shikonin] (assay: Viability of human cancer cell lines after 72 h of drug (GDSC screen)). Details: top dose 16 µM; top dose inferred.
Method: (§1)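 Human cancer cell lines in 384-well plates, medium with 10% serum, drug for 72 h over a 256-fold dose range (nine 2-fold or five 4-fold steps up to the top dose). Adherent lines were fixed and stained with the nucleic acid dye Syto60, suspension lines read with resazurin; signal relative to control wells, capped at 0 and 100%. One two-parameter sigmoid per drug and line, fitted in a mixed model over all curves with the slope shared within a line.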
Cell Line GAMG (glioma, adherent) has an AUC of 0.584 and an IC50 of 1.72 µM. For HCC1806 (breast, adherent), the AUC was 0.508 and the IC50 was 1.05 µM. Cell Line HLE (liver, adherent) has an AUC of 0.23 and an IC50 of 0.174 µM. With LN-405 (glioma, adherent) the AUC was 0.668 and the IC50 was 3.32 µM. Work on MDA-MB-157 (breast, adherent) yielded an AUC of 0.453 and an IC50 of 0.744 µM. For MKN1 (stomach, adherent), the AUC was 0.386 and the IC50 was 0.479 µM. In the case of “NCI-H522 (lung adenocarcinoma, adherent)”, the AUC is reported as 0.378 and the IC50 is reported as 0.432 µM. “NCI-H2030 (lung adenocarcinoma, adherent)” gave an AUC of 0.422 and an IC50 of 0.593 µM. In the case of “NCI-H2085 (lung adenocarcinoma, adherent)”, the AUC is reported as 0.321 and the IC50 is reported as 0.301 µM. In the case of NUGC-3 (stomach, adherent), the AUC is reported as 0.443 and the IC50 is reported as 0.687 µM. OAW-28 (ovary, adherent) gave an AUC of 0.567 and an IC50 of 1.6 µM. In the case of PANC-10-05 (pancreas, adherent), the AUC is reported as 0.383 and the IC50 is reported as 0.434 µM. With RERF-GC-1B (stomach, adherent) the AUC was 0.87 and the IC50 was > 16 µM. In the case of SU-DHL-5 (B-cell lymphoma, suspension), the AUC is reported as 0.161 and the IC50 is reported as 0.138 µM. Cell Line “SW900 (lung squamous cell carcinoma, adherent)” has an AUC of 0.482 and an IC50 of 0.888 µM. With Saos-2 (osteosarcoma, adherent) the AUC was 0.617 and the IC50 was 2.41 µM. For TCCSUP (bladder, adherent), the AUC was 0.397 and the IC50 was 0.502 µM. With U031 (kidney, adherent) the AUC was 0.416 and the IC50 was 0.583 µM. In the case of VM-CUB-1 (bladder, adherent), the AUC is reported as 0.501 and the IC50 is reported as 1 µM.

The cell lines below were run with NC(=O)c1ccc(N(C(N)=O)c2c(F)cccc2F)nc1-c1ccc(F)cc1F [VX-702] in the same assay as above. Details: top dose 2 µM; top dose inferred.
Method: as §1
With BALL-1 (B-cell leukaemia, suspension) the AUC was 0.997 and the IC50 was > 2 µM. In the case of BT-549 (breast, adherent), the AUC is reported as 0.977 and the IC50 is reported as > 2 µM. For CL-40 (large intestine, adherent), the AUC was 0.973 and the IC50 was > 2 µM. With “CML-T1 (chronic myeloid leukaemia, suspension)” the AUC was 0.989 and the IC50 was > 2 µM. In the case of CRO-AP2 (B-cell lymphoma, suspension), the AUC is reported as 0.914 and the IC50 is reported as > 2 µM. IGROV-1 (ovary, adherent) was tested, and the AUC was 0.972 and the IC50 was > 2 µM. In the case of JEKO-1 (B-cell lymphoma, suspension), the AUC is reported as 0.932 and the IC50 is reported as > 2 µM. With “KARPAS-1106P (B-cell lymphoma, suspension)” the AUC was 0.936 and the IC50 was > 2 µM. With MEL-HO (melanoma, adherent) the AUC was 0.972 and the IC50 was > 2 µM. For MM1S (myeloma, suspension), the AUC was 0.9 and the IC50 was > 2 µM. For SU-DHL-5 (B-cell lymphoma, suspension), the AUC was 0.988 and the IC50 was > 2 µM.

The cell lines below were run with Cc1ccc(-n2nc(C(C)(C)C)cc2NC(=O)Nc2ccc(OCCN3CCOCC3)c3ccccc23)cc1 [BIRB 0796] in the same assay as above. Details: top dose 10 µM; top dose inferred.
Method: as §1
With 786-0 (kidney, adherent) the AUC was 0.976 and the IC50 was > 10 µM. In the case of A172 (glioma, adherent), the AUC is reported as 0.987 and the IC50 is reported as > 10 µM. For BALL-1 (B-cell leukaemia, suspension), the AUC was 0.997 and the IC50 was > 10 µM. BCPAP (thyroid, adherent) was tested, and the AUC was 0.963 and the IC50 was > 10 µM. BHY (head and neck, adherent) was tested, and the AUC was 0.98 and the IC50 was > 10 µM. BPH-1 (prostate, adherent) was tested, and the AUC was 0.942 and the IC50 was > 10 µM. BT-549 (breast, adherent) was tested, and the AUC was 0.932 and the IC50 was > 10 µM. With CAL-54 (kidney, adherent) the AUC was 0.959 and the IC50 was > 10 µM. In the case of CHP-134 (neuroblastoma, suspension), the AUC is reported as 0.955 and the IC50 is reported as > 10 µM. CL-40 (large intestine, adherent) was tested, and the AUC was 0.976 and the IC50 was > 10 µM. With “CML-T1 (chronic myeloid leukaemia, suspension)” the AUC was 0.992 and the IC50 was > 10 µM. For CRO-AP2 (B-cell lymphoma, suspension), the AUC was 0.914 and the IC50 was > 10 µM. For “ChaGo-K-1 (non-small cell lung carcinoma, adherent)”, the AUC was 0.907 and the IC50 was > 10 µM. With GAMG (glioma, adherent) the AUC was 0.964 and the IC50 was > 10 µM. For HCC1806 (breast, adherent), the AUC was 0.964 and the IC50 was > 10 µM. In the case of HLE (liver, adherent), the AUC is reported as 0.988 and the IC50 is reported as > 10 µM. In the case of IGROV-1 (ovary, adherent), the AUC is reported as 0.953 and the IC50 is reported as > 10 µM. With JEKO-1 (B-cell lymphoma, suspension) the AUC was 0.987 and the IC50 was > 10 µM. In the case of “KARPAS-1106P (B-cell lymphoma, suspension)”, the AUC is reported as 0.985 and the IC50 is reported as > 10 µM. LN-405 (glioma, adherent) was tested, and the AUC was 0.969 and the IC50 was > 10 µM. MDA-MB-157 (breast, adherent) was tested, and the AUC was 0.918 and the IC50 was > 10 µM. MEL-HO (melanoma, adherent) was tested, and the AUC was 0.984 and the IC50 was > 10 µM. With MKN1 (stomach, adherent) the AUC was 0.944 and the IC50 was > 10 µM. In the case of MM1S (myeloma, suspension), the AUC is reported as 0.945 and the IC50 is reported as > 10 µM. “NCI-H522 (lung adenocarcinoma, adherent)” was tested, and the AUC was 0.968 and the IC50 was > 10 µM. In the case of “NCI-H2030 (lung adenocarcinoma, adherent)”, the AUC is reported as 0.983 and the IC50 is reported as > 10 µM. In the case of “NCI-H2085 (lung adenocarcinoma, adherent)”, the AUC is reported as 0.946 and the IC50 is reported as > 10 µM. For NUGC-3 (stomach, adherent), the AUC was 0.963 and the IC50 was > 10 µM. For OAW-28 (ovary, adherent), the AUC was 0.954 and the IC50 was > 10 µM. With PANC-10-05 (pancreas, adherent) the AUC was 0.973 and the IC50 was > 10 µM. With RERF-GC-1B (stomach, adherent) the AUC was 0.983 and the IC50 was > 10 µM. “SW900 (lung squamous cell carcinoma, adherent)” was tested, and the AUC was 0.982 and the IC50 was > 10 µM. In the case of Saos-2 (osteosarcoma, adherent), the AUC is reported as 0.92 and the IC50 is reported as > 10 µM. With TCCSUP (bladder, adherent) the AUC was 0.985 and the IC50 was > 10 µM. In the case of U031 (kidney, adherent), the AUC is reported as 0.985 and the IC50 is reported as > 10 µM. With VM-CUB-1 (bladder, adherent) the AUC was 0.955 and the IC50 was > 10 µM.

Each cell line was assayed with O=C(c1cc(Cc2n[nH]c(=O)c3ccccc23)ccc1F)N1CCN(C(=O)C2CC2)CC1 [Olaparib] in the same assay as above. Details: top dose 5 µM; screen: GDSC drug entry 1017; top dose inferred.
Method: as §1
In the case of BALL-1 (B-cell leukaemia, suspension), the AUC is reported as 0.988 and the IC50 is reported as > 5 µM. CL-40 (large intestine, adherent) was tested, and the AUC was 0.947 and the IC50 was > 5 µM. In the case of “CML-T1 (chronic myeloid leukaemia, suspension)”, the AUC is reported as 0.915 and the IC50 is reported as > 5 µM. For CRO-AP2 (B-cell lymphoma, suspension), the AUC was 0.958 and the IC50 was > 5 µM. In the case of IGROV-1 (ovary, adherent), the AUC is reported as 0.973 and the IC50 is reported as > 5 µM. In the case of “KARPAS-1106P (B-cell lymphoma, suspension)”, the AUC is reported as 0.938 and the IC50 is reported as > 5 µM. LN-405 (glioma, adherent) was tested, and the AUC was 0.95 and the IC50 was > 5 µM. In the case of MEL-HO (melanoma, adherent), the AUC is reported as 0.976 and the IC50 is reported as > 5 µM. Work on SU-DHL-5 (B-cell lymphoma, suspension) yielded an AUC of 0.883 and an IC50 of 3.12 µM. Saos-2 (osteosarcoma, adherent) was tested, and the AUC was 0.981 and the IC50 was > 5 µM.

Same assay, conditions: top dose 10 µM; screen: GDSC drug entry 1495
With 786-0 (kidney, adherent) the AUC was 0.945 and the IC50 was > 10 µM. In the case of A172 (glioma, adherent), the AUC is reported as 0.96 and the IC50 is reported as > 10 µM. For BALL-1 (B-cell leukaemia, suspension), the AUC was 0.973 and the IC50 was > 10 µM. In the case of BCPAP (thyroid, adherent), the AUC is reported as 0.952 and the IC50 is reported as > 10 µM. In the case of BHY (head and neck, adherent), the AUC is reported as 0.953 and the IC50 is reported as > 10 µM. BPH-1 (prostate, adherent) was tested, and the AUC was 0.918 and the IC50 was > 10 µM. CAL-54 (kidney, adherent) was tested, and the AUC was 0.981 and the IC50 was > 10 µM. CL-40 (large intestine, adherent) was tested, and the AUC was 0.925 and the IC50 was > 10 µM. “CML-T1 (chronic myeloid leukaemia, suspension)” showed an AUC of 0.768 and an IC50 of 3.15 µM. CRO-AP2 (B-cell lymphoma, suspension) was tested, and the AUC was 0.948 and the IC50 was > 10 µM. For “ChaGo-K-1 (non-small cell lung carcinoma, adherent)”, the AUC was 0.926 and the IC50 was > 10 µM. In the case of GAMG (glioma, adherent), the AUC is reported as 0.951 and the IC50 is reported as > 10 µM. In the case of HCC1806 (breast, adherent), the AUC is reported as 0.883 and the IC50 is reported as 9.23 µM. With HLE (liver, adherent) the AUC was 0.983 and the IC50 was > 10 µM. In the case of IGROV-1 (ovary, adherent), the AUC is reported as 0.899 and the IC50 is reported as > 10 µM. For “KARPAS-1106P (B-cell lymphoma, suspension)”, the AUC was 0.979 and the IC50 was > 10 µM. LN-405 (glioma, adherent) was tested, and the AUC was 0.965 and the IC50 was > 10 µM. In the case of MDA-MB-157 (breast, adherent), the AUC is reported as 0.97 and the IC50 is reported as > 10 µM. In the case of MEL-HO (melanoma, adherent), the AUC is reported as 0.913 and the IC50 is reported as > 10 µM. In the case of MKN1 (stomach, adherent), the AUC is reported as 0.978 and the IC50 is reported as > 10 µM. For “NCI-H522 (lung adenocarcinoma, adherent)”, the AUC was 0.969 and the IC50 was > 10 µM. In the case of “NCI-H2085 (lung adenocarcinoma, adherent)”, the AUC is reported as 0.944 and the IC50 is reported as > 10 µM. In the case of NUGC-3 (stomach, adherent), the AUC is reported as 0.871 and the IC50 is reported as > 10 µM. OAW-28 (ovary, adherent) was tested, and the AUC was 0.868 and the IC50 was > 10 µM. PANC-10-05 (pancreas, adherent) was tested, and the AUC was 0.954 and the IC50 was > 10 µM. RERF-GC-1B (stomach, adherent) was tested, and the AUC was 0.923 and the IC50 was > 10 µM. Cell Line SU-DHL-5 (B-cell lymphoma, suspension) has an AUC of 0.702 and an IC50 of 1.96 µM. “SW900 (lung squamous cell carcinoma, adherent)” was tested, and the AUC was 0.933 and the IC50 was > 10 µM. Saos-2 (osteosarcoma, adherent) was tested, and the AUC was 0.925 and the IC50 was > 10 µM. For TCCSUP (bladder, adherent), the AUC was 0.909 and the IC50 was > 10 µM. U031 (kidney, adherent) was tested, and the AUC was 0.725 and the IC50 was 2.79 µM.
